Measurements taken from PMC4738305, “Metabolism and Disposition of Aditoprim in Swine, Broilers, Carp and Rats” (Scientific Reports, 2016).
The source gives many values for each of these; only a part stands here.

Experiment: Tissue distribution and elimination of total radioactivity (total residues) after oral ^3H-ADP for 7 d
Type: in vivo
Details: broilers
Description: (0.1 Ci/g) through oral gavage for 7 consecutive days. All the animals were housed on the basis of their group in the cages or aquaria throughout the whole study period. A group of animals was slaughtered through exsanguination under diethyl ether inhalation of anesthesia in the period of 6 h, 1, 3, 7, 14, and 21 d after the administration. The blood samples were immediately collected into the heparinized tubes and was centrifuged at 1920 × g at 4 °C for 10 min to obtain the plasma. The tissues from the heart, liver, spleen, lung, kidney, craw (broilers), stomach, intestine, fat, skin, muscle, thymus, pancreas, bile, bladder, hair (scale for carp), genital gland, adrenal glands, swim bladder (carp), brain, lymph, and bursa (broilers) were carefully excised and collected. The tissues were thoroughly rinsed with the deionized water to remove the residuary blood, blotted to dryness, and finally to perform the homogenization. In order to avoid cross-contamination the dissecting instruments were washed during the tissue procurements. The blank tissues were collected in order to provide control matrices. The total radioactivity levels in each sample were determined through LSC. The samples extracted from the plasma, bile, and tissues of the liver, kidney, muscle, and fat/skin were analyzed through LC/MS-IT-TOF and v. ARC radiometric detection for metabolite profiling.
Measurements of the total radioactivity in each sample were conducted by Packard Tri-Carb 2900 TR liquid scintillation counter (PerkinElmer Life and Analytical Sciences). The detection time was 10 min for two cycles. The scintillation counter data were automatically corrected for counting efficiency by instrument-stored quench curve which was drawn with a series of sealed quenched […] standards. The actual radioactivity of each sample was calculated by subtracting the background value form the mean radioactivity in two blank samples. All the samples were analyzed in duplicate if the sample size allowed this. If the results were differed by more than 10% from the mean value, the samples were reanalyzed. The samples with LSC counts less than 2-fold of the level of the running background were considered to contain insufficient radioactivity for reliable quantification.
Aliquots of liquid samples (urine, plasma, bile and raised water, 200 μL) were mixed with 10 mL of Ultima Gold^TM scintillation fluid for the direct analysis by LSC. Aliquots of solid samples (feces and tissues, 200 mg) were digested overnight with 2 mL tissue solubilizer at 50 °C in a shaking water bath, followed by adding 200 μL of 0.1 mol/L EDTA-Na and 200 μL of 30% H2O2, and was bathed at 50 °C for 2 h to bleach. The obtained transparent liquid were mixed with 10 mL of scintillation fluid and finally were counted by LSC. The digestion efficiency was determined by using the blank samples spiked with ^3 H standard for digestion, and the measured radioactivity content in the digested samples were adjusted by using the digestion efficiency values.
The concentrations of ADP and/or its metabolites were analyzed by using the following equation: C = L/(2.22 × 10^9 × RM), where C is the concentration of ADP or/and its metabolites (mg/kg), L is the LSC count (dpm), R is the specific activity of the administered dose (0.1 Ci/g), and M is the weight or volume of samples (kg or L). The results are expressed as mean ± SD. The elimination kinetics of terminal phase for ADP and its metabolites were conducted by using the WinNonlin linear regression program (Pharsight corporation, Statistical consultants, Inc., Kentucky, USA).

Compound: [3H]c1c(Cc2cnc(N)nc2N)cc(OC)c(N(C)C)c1OC [^3H-ADP]
- Concentrations of total residues (Bile, time 0.25, 5 mg/kg b.w. 7 days): 25.15 ± 8.55 mg/kg
- Concentrations of total residues (Bile, time 1, 5 mg/kg b.w. 7 days): 11.46 ± 1.16 mg/kg
- Concentrations of total residues (Bile, time 3, 5 mg/kg b.w. 7 days): 3.96 ± 1.06 mg/kg
- Concentrations of total residues (Bile, time 7, 5 mg/kg b.w. 7 days): 0.25 ± 0.08 mg/kg
- Concentrations of total residues (Blood, time 0.25, 5 mg/kg b.w. 7 days): 0.77 ± 0.16 mg/kg
- Concentrations of total residues (Blood, time 1, 5 mg/kg b.w. 7 days): 0.42 ± 0.06 mg/kg
- Concentrations of total residues (Blood, time 3, 5 mg/kg b.w. 7 days): 0.16 ± 0.03 mg/kg
- Concentrations of total residues (Blood, time 7, 5 mg/kg b.w. 7 days): 0.06 ± 0.01 mg/kg
- Concentrations of total residues (Brain, time 0.25, 5 mg/kg b.w. 7 days): 2.07 ± 0.54 mg/kg
- Concentrations of total residues (Brain, time 1, 5 mg/kg b.w. 7 days): 1.02 ± 0.28 mg/kg
- Concentrations of total residues (Brain, time 3, 5 mg/kg b.w. 7 days): 0.44 ± 0.05 mg/kg
- Concentrations of total residues (Brain, time 7, 5 mg/kg b.w. 7 days): 0.06 ± 0.01 mg/kg
- Concentrations of total residues (Bursa of Fabricius, time 0.25, 5 mg/kg b.w. 7 days): 9.62 ± 1.43 mg/kg
- Concentrations of total residues (Bursa of Fabricius, time 1, 5 mg/kg b.w. 7 days): 4.20 ± 0.86 mg/kg
- Concentrations of total residues (Bursa of Fabricius, time 3, 5 mg/kg b.w. 7 days): 0.51 ± 0.09 mg/kg
- Concentrations of total residues (Bursa of Fabricius, time 7, 5 mg/kg b.w. 7 days): 0.10 ± 0.01 mg/kg
- Concentrations of total residues (Bursa of Fabricius, time 14, 5 mg/kg b.w. 7 days): 0.01 ± 0.00 mg/kg
- Concentrations of total residues (Heart, time 0.25, 5 mg/kg b.w. 7 days): 2.27 ± 0.52 mg/kg
- Concentrations of total residues (Heart, time 1, 5 mg/kg b.w. 7 days): 0.81 ± 0.25 mg/kg
- Concentrations of total residues (Heart, time 3, 5 mg/kg b.w. 7 days): 0.23 ± 0.03 mg/kg
- Concentrations of total residues (Heart, time 7, 5 mg/kg b.w. 7 days): 0.08 ± 0.00 mg/kg
- Concentrations of total residues (Heart, time 14, 5 mg/kg b.w. 7 days): 0.01 ± 0.00 mg/kg
- Concentrations of total residues (Kidney, time 0.25, 5 mg/kg b.w. 7 days): 23.54 ± 3.83 mg/kg
- Concentrations of total residues (Kidney, time 1, 5 mg/kg b.w. 7 days): 11.04 ± 2.65 mg/kg
- Concentrations of total residues (Kidney, time 3, 5 mg/kg b.w. 7 days): 1.70 ± 0.28 mg/kg
- Concentrations of total residues (Kidney, time 7, 5 mg/kg b.w. 7 days): 0.21 ± 0.00 mg/kg
- Concentrations of total residues (Kidney, time 14, 5 mg/kg b.w. 7 days): 0.06 ± 0.00 mg/kg
- Concentrations of total residues (Liver, time 0.25, 5 mg/kg b.w. 7 days): 13.31 ± 1.98 mg/kg
- Concentrations of total residues (Liver, time 1, 5 mg/kg b.w. 7 days): 3.05 ± 0.66 mg/kg
- Concentrations of total residues (Liver, time 3, 5 mg/kg b.w. 7 days): 1.55 ± 0.21 mg/kg
- Concentrations of total residues (Liver, time 7, 5 mg/kg b.w. 7 days): 0.63 ± 0.03 mg/kg
- Concentrations of total residues (Liver, time 14, 5 mg/kg b.w. 7 days): 0.16 ± 0.02 mg/kg
- Concentrations of total residues (Lung, time 0.25, 5 mg/kg b.w. 7 days): 11.41 ± 1.91 mg/kg
- Concentrations of total residues (Lung, time 1, 5 mg/kg b.w. 7 days): 3.27 ± 0.25 mg/kg
- Concentrations of total residues (Lung, time 3, 5 mg/kg b.w. 7 days): 0.59 ± 0.05 mg/kg
- Concentrations of total residues (Lung, time 7, 5 mg/kg b.w. 7 days): 0.08 ± 0.00 mg/kg
- Concentrations of total residues (Maw, time 0.25, 5 mg/kg b.w. 7 days): 7.77 ± 1.06 mg/kg
- Concentrations of total residues (Maw, time 1, 5 mg/kg b.w. 7 days): 1.46 ± 0.64 mg/kg
- Concentrations of total residues (Maw, time 3, 5 mg/kg b.w. 7 days): 0.25 ± 0.03 mg/kg
- Concentrations of total residues (Maw, time 7, 5 mg/kg b.w. 7 days): 0.05 ± 0.01 mg/kg
- Concentrations of total residues (Muscle, time 3, 5 mg/kg b.w. 7 days): 0.14 ± 0.02 mg/kg
- Concentrations of total residues (Muscle, time 7, 5 mg/kg b.w. 7 days): 0.06 ± 0.01 mg/kg
- Concentrations of total residues (Pancreas, time 0.25, 5 mg/kg b.w. 7 days): 11.41 ± 3.46 mg/kg
- Concentrations of total residues (Pancreas, time 1, 5 mg/kg b.w. 7 days): 2.55 ± 0.56 mg/kg
- Concentrations of total residues (Pancreas, time 3, 5 mg/kg b.w. 7 days): 0.49 ± 0.04 mg/kg
- Concentrations of total residues (Pancreas, time 7, 5 mg/kg b.w. 7 days): 0.07 ± 0.01 mg/kg
- Concentrations of total residues (Spleen, time 0.25, 5 mg/kg b.w. 7 days): 14.03 ± 3.12 mg/kg
- Concentrations of total residues (Spleen, time 1, 5 mg/kg b.w. 7 days): 3.08 ± 0.51 mg/kg
- Concentrations of total residues (Spleen, time 3, 5 mg/kg b.w. 7 days): 0.62 ± 0.02 mg/kg
- Concentrations of total residues (Spleen, time 7, 5 mg/kg b.w. 7 days): 0.10 ± 0.01 mg/kg
- Concentrations of total residues (Spleen, time 14, 5 mg/kg b.w. 7 days): 0.03 ± 0.02 mg/kg
